Results published in PubChem BioAssay AID485364 (National Center for Advancing Translational Sciences (NCATS), 2010).
Among all 360,000 compounds or so, about 11,000 (3.1%) were called active. Inconclusive results, whose numbers are uncertain, are shown with a selection of clear calls. The call rests on the fitted dose curve; in most records, active means well fitted inhibition curve with a large enough effect; inconclusive means small, poorly fitted or top-dose-only effect; inactive means no such curve, though single readings can be large or run the other way. Potencies of inconclusive entries are left out as doubtful fits.

Target: Schistosoma mansoni thioredoxin glutathione reductase (TGR) (UniProt Q962Y6)
Experiment: qHTS Assay for the Inhibitors of Schistosoma Mansoni Peroxiredoxins; further: nearly all actives have a fitted effect of over 60% in size
Settings: purified TGR, DTNB reduction, TNB absorbance 405 nm; series mostly up to 114 µM
In short: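 First, TGR (20 nM dispensed) and NADPH were mixed with compound. Second, a 15 min room-temperature incubation followed. Third, further NADPH and then DTNB were added to start the reaction. Finally, TNB absorbance was monitored kinetically.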
Potency means the concentration at half of the fitted maximal effect; tags describe the fitted curve by direction and shape.

Q: Which Potency does the source give for `COC(=O)c1ccc(NC(=O)CN2C(=O)c3cccc4cccc2c34)cc1` here?
A: inactive

Q: How did the Potency turn out when `Nc1c(Cl)cnc(C(Cl)(Cl)Cl)c1Cl` was run?
A: inconclusive [inhibitor, partial curve]

Q: How did the Potency turn out when `Cc1cc2cc3c(cc2nc1SCC(=O)N1CCN(C(=O)c2ccco2)CC1)OCO3` was run?
A: inconclusive [inhibitor, partial curve]

Q: Which Potency does the source give for `COC(=O)c1ccc(OC)c(CN2C(=O)N(c3ccc(C(C)=O)cc3)S(=O)(=O)c3ccccc32)c1` here?
A: inconclusive [inhibitor, single point]

Q: How did the Potency turn out when `CC(=O)Oc1ccc(/C=C2\N=C(C3CCCCC3)OC2=O)cc1` was run?
A: inconclusive [inhibitor, full curve, poor fit]

Q: How did the Potency turn out when `Cc1ccc2[nH]c3c(c2c1)CN(C(=O)CN1C[C@H]2C[C@@H](C1)c1cccc(=O)n1C2)CC3` was run?
A: inconclusive [inhibitor, full curve, poor fit]

Q: Which Potency does the source give for `CN(C)c1ncnc2c1NC1=C(S2)C(=NCCCC(=O)O)CC(C)(C)C1` here?
A: inconclusive [inhibitor, partial curve, poor fit]

Q: `CCOc1ccc(-c2nc(CSCC(=O)NCc3ccco3)c(C)o2)cc1` was tested. Which Potency did it give?
A: inconclusive [inhibitor, partial curve, poor fit]

Q: Which Potency does the source give for `COc1ccc(CCNC2=C(Cl)C(=O)N(CCc3ccc(OC)c(OC)c3)C2=O)cc1OC` here?
A: inactive

Q: With `COc1cccc(Cn2cc(C(=O)NCCN(C)C)nn2)c1` as the molecule, how does the Potency read?
A: inactive

Q: With `CC(C)Sc1nc2sc3c(c2c2nnc(SCC(=O)NCc4ccco4)n12)CCCC3` as the molecule, how does the Potency read?
A: inconclusive [inhibitor, partial curve]

Q: With `COc1ccc(-c2nc(CS(=O)(=O)CC(=O)NCc3ccc4c(c3)OCO4)c(C)o2)cc1` as the molecule, how does the Potency read?
A: inconclusive [inhibitor, single point]

Q: `COc1cc(/C=C/c2[nH]c(=O)[nH]c(=O)c2[N+](=O)[O-])cc([N+](=O)[O-])c1O` was tested. Which Potency did it give?
A: inactive

Q: For `COc1ccc2nc(C)cc(SCC(=O)N/N=C/c3ccccc3)c2c1`, which Potency is on record?
A: inactive

Q: With `COC1CCCN(Cc2c(C(=O)N3CCc4ccccc4C3)nc3ccc(Cl)cn23)C1` (configuration not stated) as the molecule, how does the Potency read?
A: inconclusive [inhibitor, partial curve, poor fit]

Q: Which Potency does the source give for `CC(C)(C)NC(=O)CCc1nnc(Cc2c[nH]c3ccccc23)o1` here?
A: inconclusive [inhibitor, partial curve]

Q: For `COC(=O)C1=C(C)N(Cc2ccccc2)C(=NCc2cc(OC)c(OC)c(OC)c2)N[C@H]1c1cccc(F)c1`, which Potency is on record?
A: inactive

Q: Which Potency does the source give for `COc1ccc(OC)c(CN2CCN(C(=O)c3ccc(NS(=O)(=O)c4cccc([N+](=O)[O-])c4)cc3)CC2)c1` here?
A: inconclusive [inhibitor, partial curve]

Q: Which Potency does the source give for `O=c1c(Cl)c(NCC2CCCO2)cnn1C12CC3CC(CC(C3)C1)C2` (configuration not stated) here?
A: inconclusive [inhibitor, partial curve]

Q: With `CCn1nnc2cc(C(=O)NCC(c3ccccc3OC)N(C)C)ccc21` (configuration not stated) as the molecule, how does the Potency read?
A: inconclusive [inhibitor, partial curve]

Q: `C=CCn1c(-c2c[nH]c3ccccc23)n[nH]c1=S` was tested. Which Potency did it give?
A: inconclusive [inhibitor, partial curve]

Q: Which Potency does the source give for `CCc1nnc(NC(=O)CSc2nnc(-c3c[nH]c4ccccc34)n2C)s1` here?
A: inconclusive [inhibitor, single point]

Q: `Cc1ccc(-n2c(Cc3cccn3C)nnc2SCC(=O)N2CCc3ccccc32)cc1` was tested. Which Potency did it give?
A: inconclusive [inhibitor, single point]

Q: Which Potency does the source give for `CC(=O)c1ccc(NC(=O)c2ccc(-c3nc(CSc4ccccc4)c(C)o3)cc2)cc1` here?
A: inconclusive [inhibitor, partial curve]

Q: `COc1ccc(N2C(=O)CC(Sc3n[nH]c(-c4cccc(C)c4)n3)C2=O)cc1` (configuration not stated) was tested. Which Potency did it give?
A: active: 0.316 µM

Q: `CC(=O)c1cccc(NS(=O)(=O)c2c(C)noc2C)c1` was tested. Which Potency did it give?
A: inactive

Q: With `COC(=O)c1c(NC(=O)CC2Nc3cc(C)c(C)cc3NC2=O)sc(C)c1C` (configuration not stated) as the molecule, how does the Potency read?
A: inconclusive [inhibitor, single point]

Q: `C/C(=N\Nc1nc(C(C)(C)C)cs1)c1ccc(O)cc1` was tested. Which Potency did it give?
A: inconclusive [inhibitor, partial curve, poor fit]

Q: `COc1ccc(CCNC(=O)C2CCCN(S(=O)(=O)c3ccc(F)cc3)C2)cc1` (configuration not stated) was tested. Which Potency did it give?
A: active: 89.1 µM

Q: `Cc1ccc(C(=O)Nc2cccc(C(F)(F)F)c2)cc1Nc1cncnc1` was tested. Which Potency did it give?
A: inconclusive [inhibitor, partial curve, poor fit]

Q: Which Potency does the source give for `CSc1ccccc1NC(=S)Nc1ccc(S(N)(=O)=O)cc1` here?
A: active: 22.4 µM

Q: How did the Potency turn out when `COc1cccc(CN2CCNC(=O)C2CC(=O)N(C)CCc2ccccn2)c1OC` (configuration not stated) was run?
A: inconclusive [inhibitor, partial curve]

Q: Which Potency does the source give for `COC(=O)c1cc(NC(=O)c2nn(C)c3c2COc2ccccc2-3)cc(C(=O)OC)c1` here?
A: inactive

Q: `Cc1ccc(-n2cc(CNCCN3CCOC3=O)c(-c3ccc(F)cc3)n2)cc1` was tested. Which Potency did it give?
A: inconclusive [inhibitor, single point]

Q: Which Potency does the source give for `CCn1c(C)c(C)c2cc(C(=O)NCCc3ccco3)ccc21` here?
A: inconclusive [inhibitor, partial curve]

Q: How did the Potency turn out when `Cc1cccn2c(=O)c3cc(C(N)=S)c(=N)n(CCCOC(C)C)c3nc12` was run?
A: inconclusive [inhibitor, partial curve]

Q: Which Potency does the source give for `Cc1cc2ccccn2c1C(C[N+](=O)[O-])c1ccc(N(C)C)cc1` (configuration not stated) here?
A: inconclusive [inhibitor, partial curve]

Q: With `c1cncc(CSc2nnc3ccc(-c4ccco4)nn23)c1` as the molecule, how does the Potency read?
A: inconclusive [inhibitor, partial curve]

Q: Which Potency does the source give for `Cc1ccc(Cc2cc(C)n[nH]c2=O)cc1` here?
A: inactive

Q: For `O=C(NCCNC(=O)c1ccco1)c1ccc(Cl)c(Cl)c1`, which Potency is on record?
A: inconclusive [inhibitor, partial curve]

Q: Which Potency does the source give for `N/C(=N\OC(=O)COc1cc(Cl)c(Cl)cc1Cl)c1ccncc1` here?
A: inactive

Q: How did the Potency turn out when `COc1cccc(C2=CC(c3cccs3)n3nnnc3N2)c1` (configuration not stated) was run?
A: inconclusive [inhibitor, single point]

Q: For `COc1cccc(-c2ncc3ccccc3c2CO)c1`, which Potency is on record?
A: inactive

Q: For `COc1ccccc1C1CCCN1Cc1nc(-c2ccc(C)s2)oc1C` (configuration not stated), which Potency is on record?
A: inconclusive [inhibitor, partial curve]

Q: How did the Potency turn out when `CCc1ccccc1S(=O)(=O)Cc1ccc(C(=O)NCC2CCCO2)o1` (configuration not stated) was run?
A: active: 39.8 µM

Q: Which Potency does the source give for `NCCCn1c(C(=O)c2ccc(Cl)cc2)c2ccc([N+](=O)[O-])cc2[n+]1[O-]` here?
A: inconclusive [inhibitor, partial curve]

Q: How did the Potency turn out when `CC(C)NC(=S)NC(=O)c1ccc(-c2ccccc2)cc1` was run?
A: inconclusive [inhibitor, full curve]

Q: `Cc1cnn(C(=S)NCc2ccc(Cl)cc2)c1` was tested. Which Potency did it give?
A: inconclusive [inhibitor, partial curve]

Q: `COc1ccc(CCN2CCCC(CN(C)C(=O)c3cc(C)oc3C)C2)cc1` (configuration not stated) was tested. Which Potency did it give?
A: inactive

Q: `CC(C)(C)C(=O)Cn1nnc(-c2ccc(C(F)(F)F)cc2)n1` was tested. Which Potency did it give?
A: inactive

Q: With `Cc1ccc(S(=O)(=O)Nc2cccc(C(=O)NCCN3CCOCC3)c2)cc1F` as the molecule, how does the Potency read?
A: inactive

Q: Which Potency does the source give for `C#CCOCCOCCOCCNc1nc(N2CCN(C(=O)CCCCCCCCCCNC(=O)[C@H](CCCCN)n3cc(CCO)nn3)CC2)nc(N2CCN(C(=O)CCCCCCCCCCNC(=O)[C@@H]([C@H](C)O)n3cc(C)nn3)CC2)n1` here?
A: active: 17.8 µM

Q: How did the Potency turn out when `Cc1nc2ccn(Cc3ccco3)c(=O)c2cc1C(=O)N1CCN(c2ccccc2)CC1` was run?
A: inactive

Q: For `O=C(Nc1ccccc1N1CCOCC1)C1Cc2ccccc2CN1C(=O)c1ccco1` (configuration not stated), which Potency is on record?
A: inconclusive [inhibitor, partial curve, poor fit]

Q: With `CC(=C1C2C=CC1C1C(=O)NC(=O)C21)c1ccccc1` (configuration not stated) as the molecule, how does the Potency read?
A: inconclusive [inhibitor, partial curve, poor fit]

Q: For `COCc1ccc(C(=O)Nc2ccccc2C(=O)NCc2cccnc2)cc1`, which Potency is on record?
A: inactive

Q: `COc1ccc(N(C(=O)c2cccnc2)S(=O)(=O)c2ccc(Cl)cc2)cc1` was tested. Which Potency did it give?
A: inconclusive [inhibitor, full curve, poor fit]

Q: `Cc1nn(C(C)C(=O)NCCCN2CCCCCC2)c(=O)c2c1sc1ccccc12` (configuration not stated) was tested. Which Potency did it give?
A: inconclusive [inhibitor, partial curve]

Q: With `O=S(=O)(Nc1ccc(-c2ccc3nncn3n2)cc1)c1cccc(F)c1` as the molecule, how does the Potency read?
A: inactive

Q: With `N/C(=N/S(=O)(=O)c1ccccc1)c1cccc([N+](=O)[O-])c1` as the molecule, how does the Potency read?
A: inconclusive [inhibitor, partial curve]

Q: For `O=C(CN1CCCc2ccccc21)NCCc1ccc(F)cc1`, which Potency is on record?
A: inconclusive [inhibitor, partial curve]

Q: With `N#CCN1C(=O)C(=O)N(Cc2cccc(Cl)c2)C1=O` as the molecule, how does the Potency read?
A: inconclusive [inhibitor, full curve, poor fit]

Q: `COc1cc2c(C#CCCCO)c(-c3ccc(C#N)cc3)oc(=O)c2cc1OC` was tested. Which Potency did it give?
A: active: 31.6 µM

Q: Which Potency does the source give for `Cc1noc(C)c1C(=O)N1CCN(CCc2ccccc2)CC1` here?
A: inconclusive [inhibitor, single point]

Q: Which Potency does the source give for `O=C(Nc1ccc(O)cc1)c1cccc(Oc2ccc([N+](=O)[O-])cc2)c1` here?
A: inconclusive [inhibitor, single point]

Q: `CCOC(=O)c1ccc(N2C(=O)C3C(C2=O)C(C(=O)c2ccc(Cl)cc2)N2CCCC32)cc1` (configuration not stated) was tested. Which Potency did it give?
A: active: 15.8 µM

Q: For `O=C(N/N=C/c1c(O)n(CCc2ccc(F)cc2)c(=O)[nH]c1=O)c1ccccc1`, which Potency is on record?
A: inconclusive [inhibitor, single point]
